Results published in the supplement of paper PMC4894684.
Counter-ions that a name gives are not always drawn. ± gives the standard deviation of the averaged measurements. The whole screen tested about 1,000 compounds, of which about 15 (2%) showed an effect of 50% or more. Some of the results follow.

Test system: HFF
Assay: uninfected host cell viability relative to vehicle control; higher = less host cell toxicity
Settings: 5 µM; 72 h; oxygen 21 %
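Further: confluent HFF monolayers, run in parallel with the Toxoplasma growth screen as a host toxicity counterscreen.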

Row | SMILES | uninfected host cell viability
1 | C=C[C@@]1(C)CC(=O)[C@]2(O)[C@@]3(C)[C@@H](O)CCC(C)(C)[C@@H]3[C@H](O)[C@H](OC(C)=O)[C@@]2(C)O1 [Forskolin] | 95.9 ± 2.4%
2 | Nc1c2c(nc3ccccc13)CCCC2 [Tacrine hydrochloride] | 93.4 ± 1.1%
3 | Cc1ccc(NC(=O)c2cccc(N(C)C)c2)cc1NC(=O)c1ccc(O)cc1 | 70.9 ± 0.75%
4 | CCc1ccc2c(-c3cccc(Cl)c3)nc(=O)n(CC)c2n1 | 87.2 ± 1.4%
5 | COC(=O)C1=C(C)NC(C)=C([N+](=O)[O-])C1c1ccccc1C(F)(F)F (racemic) | 70.47 ± 0.64%
6 | CC(C)[C@H]1c2ccc(F)cc2CC[C@@]1(CCN(C)CCCc1nc2ccccc2[nH]1)OC(=O)C1CC1 [NNC 55-0396 dihydrochloride] | 15.68 ± 0.031%
7 | O=C1CN(/N=C/c2ccc(-c3ccc([N+](=O)[O-])cc3)o2)C(=O)N1 [Dantrolene, sodium salt] | 97.8 ± 1.1%
8 | Nc1[nH]nc2nnc(-c3c(-c4ccccc4)nn4ccccc34)cc12 | 94.685 ± 0.091%
9 | CS(=O)(=O)c1ccc(-c2cc(Br)sc2-c2ccc(F)cc2)cc1 | 104 ± 1.4%
10 | Cc1nc2sccn2c(=O)c1CCN1CCC(=C(c2ccccc2)c2ccc(F)cc2)CC1 | 93.9 ± 5.6%
11 | COc1ccc(-c2nc(-c3ccc(-c4cccc(Cl)c4)o3)[nH]c2-c2ccc(OC)cc2)cc1 [Neurodazine] | 80.3 ± 5.1%
12 | CC(C)NCC(O)COc1ccc(COCCOC(C)C)cc1 (racemic) [(±)-Bisoprolol hemifumarate] | 90.5 ± 3.5%
13 | NC(=O)N1C(=O)/C(=C(\O)c2cccs2)c2cc(Cl)ccc21 [Tenidap] | 89.1 ± 2%
14 | CC1C(=O)OC2C(O)C34C5CC(C(C)(C)C)C36C(OC(=O)C6O)OC4(C(=O)O5)C12O (stereo unspecified) [Ginkgolide B] | 96.9 ± 2.6%
15 | CCCCCCCCc1ccc(-c2ccc(C(=O)O)cc2)cc1 | 85.5 ± 5%
16 | Cc1cc(NC(=O)Nc2ccc(N(C)C)cc2)c2cc(F)cc(F)c2n1 | 85.86 ± 0.3%
17 | CC1(C)Oc2ccc(C#N)cc2[C@@H](N2CCCC2=O)[C@@H]1O [Levcromakalim] | 87.59 ± 0.25%
18 | O=c1[nH]ccc2c(S(=O)(=O)N3CCCNCC3)cccc12 [HA 1100 hydrochloride] | 90 ± 3.1%
19 | Cc1oncc1C(=O)Nc1ccc(C(F)(F)F)cc1 [Leflunomide] | 93.41 ± 0.27%
20 | O=c1[nH]c2cc(C(F)(F)F)c(N3CCOCC3)cc2n(CP(=O)(O)O)c1=O | 88.1 ± 5.2%
21 | Cc1ccc(O)c(N=Nc2ccccc2)n1 | 91.6 ± 1%
22 | CSc1ccc2c(c1)C(N1CCN(C)CC1)Cc1ccccc1S2 (stereo unspecified) [Methiothepin maleate] | 81.6 ± 1.7%

Row | SMILES | uninfected host cell viability
23 | O=C(O)COc1ccc(OCCNC[C@H](O)COc2ccccc2)cc1 [ICI 215,001 hydrochloride] | 88.1 ± 3.3%
24 | Cc1cc(C(C)(C)C)c(O)c(C)c1CC1=NCCN1 [Oxymetazoline hydrochloride] | 83.4 ± 1.6%
25 | CC(C)(C(=O)O)c1ccc(C(O)CCCN2CCC(C(O)(c3ccccc3)c3ccccc3)CC2)cc1 (stereo unspecified) [Fexofenadine hydrochloride] | 89.1 ± 1.1%
26 | CCN(CC)CCCCNc1ncc2cc(-c3c(Cl)cccc3Cl)c(NC(=O)NC(C)(C)C)nc2n1 | 77.5 ± 3.9%
27 | COc1ccc(-n2[nH]c3c4c(ncc3c2=O)CCCCC4)cc1 | 92.03 ± 0.15%
28 | Cc1sc(N)c(C(=O)c2cccc(C(F)(F)F)c2)c1C | 75.4 ± 5%
29 | COc1ccc(OC)c2c(=S)c3ccccc3[nH]c12 | 76.9 ± 3.1%
30 | C=C1C(=O)O[C@@H]2/C=C(\C)CC/C=C(\C)CC[C@@H]12 [Costunolide] | 114 ± 2.7%
31 | O=C(Nc1ccccc1)c1cc([N+](=O)[O-])ccc1Cl | 85.3 ± 1.4%
32 | CC(=O)N(O)[C@@H]1c2cc(C#N)ccc2OC(C)(C)[C@H]1O | 92.4 ± 3.3%
33 | Cn1cnc2c(NCc3ccccc3)nc(NCCO)nc21 [Olomoucine] | 81.24 ± 0.74%
34 | CC(C)N1Cc2cc(S(C)(=O)=O)ccc2N(CCN2CC=C(c3c[nH]c4cc(F)ccc34)CC2)S1(=O)=O | 86.3 ± 1.4%
35 | COc1cccc2c1C(=O)c1c(O)c3c(c(O)c1C2=O)C[C@@](O)(C(=O)CO)C[C@@H]3O[C@H]1C[C@H](N)[C@H](O)[C@H](C)O1 [Doxorubicin hydrochloride] | 63.2 ± 0.75%
36 | O=C(C=Cc1ccccc1)NC(NC(=S)Nc1ccc(Cl)cc1)C(Cl)(Cl)Cl (stereo unspecified) | 81.9 ± 0.86%
37 | NCCNC(=O)c1ccc(Cl)cn1 [Lazabemide hydrochloride] | 94.7 ± 1.2%
38 | N=C(N)NC(=N)Nc1ccccc1 [1-Phenylbiguanide hydrochloride] | 86 ± 6.5%
39 | Fc1ccc(C(c2ccc(F)cc2)N2CCN(C/C=C/c3ccccc3)CC2)cc1 [Flunarizine dihydrochloride] | 93.1 ± 8%
40 | O=c1cc(-c2cccc3c2Sc2ccccc2S3)oc(N2CCOCC2)c1 | 88.9 ± 1.5%
41 | N=C(N)SCCc1ccc(OCc2ccc([N+](=O)[O-])cc2)cc1 [KB-R7943 mesylate] | 98.457 ± 0.021%
42 | N#Cc1c(O)c2c(-c3ccc(-c4ccccc4O)cc3)csc2[nH]c1=O | 83.9 ± 2.9%
43 | O=[N+]([O-])c1ccccc1S(=O)(=O)NCC1CCC(CNCC2CCc3ccccc3C2)CC1 (stereo unspecified) [NTNCB hydrochloride] | 85.7 ± 3.1%
44 | O=C(/C=C/c1ccccc1)NC(NC(=S)Nc1cccc2cccnc12)C(Cl)(Cl)Cl (stereo unspecified) [Salubrinal] | 84.55 ± 0.26%

Row | SMILES | uninfected host cell viability
45 | Fc1ccc(Cl)cc1-c1nc(Nc2ccncc2)c2nccnc2n1 | 82.9 ± 1.1%
46 | O=C(NCCCN1CCC2(CC1)OCc1ccccc12)[C@H]1CCCN1Cc1ccccc1 | 83.3 ± 2.7%
47 | O=C(c1ccc(Nc2nccc(-c3cc4ccccc4s3)n2)cc1)N1CCC(N2CCCC2)CC1 | 14.9 ± 0.68%
48 | N=C(N)NC(=O)Cc1c(Cl)cccc1Cl [Guanfacine hydrochloride] | 84.1 ± 5.9%
49 | Cc1ccc(CC2(O)CCN(CCOc3ccc(O)cc3)CC2)cc1 | 93.5 ± 2.2%
50 | COC(=O)C1=C(C)NC(C)=C(C(=O)NCCCN2CCC(c3ccccc3)(c3ccccc3)CC2)C1c1ccc([N+](=O)[O-])cc1 (stereo unspecified) | 81.9 ± 1.8%
51 | OC(CN1CCC(Cc2ccc(F)cc2)CC1)c1ccc(Cl)cc1 (stereo unspecified) [Eliprodil] | 88.9 ± 1.1%
52 | Cc1c(NC(=O)N2CCOCC2)ccc2c1c1ccccc1n2C(C)C | 86.42 ± 0.39%
53 | O=C(O)c1ccc(-c2ccc3cc(O)c(C45CC6CC(CC(C6)C4)C5)cc3c2)cc1 | 78 ± 3.5%
54 | Cc1c(C2CCN(CCc3ccccc3)CC2)noc1-c1ccc(Cl)cc1 [L-741,742 hydrochloride] | 99.5 ± 3.1%
55 | c1ccc(-c2[nH]ncc2-c2ccnc3ccccc23)nc1 | 85.1 ± 2.5%
56 | NC(=O)CNCCC(c1ccccc1)c1ccccc1 [N20C hydrochloride] | 96.52 ± 0.7%
57 | CN1CCc2cc(Cl)c(O)cc2[C@@H](c2ccccc2)C1 | 86 ± 3.2%
58 | O=C(O)c1ccc(-c2c[nH]c3ncc(-c4ccccc4)cc23)cc1C1CCCC1 | 109 ± 2.2%
59 | CCCCNC(=O)[C@@H]1Cc2ccccc2N1C(=O)[C@@H](N)CC [Butabindide oxalate] | 88.3 ± 5.3%
60 | CC1=C(/C=C/C(C)=C/C=C/C(C)=C/C(=O)O)C(C)(C)CCC1 [Retinoic acid] | 98.8 ± 1.5%
61 | NC(N)=Nc1ccc(Cl)cc1 [4-Chlorophenylguanidine hydrochloride] | 87.3 ± 2.5%
62 | O=C(O)Cc1nn(Cc2ccc(Br)cc2F)c(=O)c2ccccc12 [Statil] | 74.548 ± 0.058%
63 | COc1cccc(CCc2ccccc2OCC[C@@H]2C[C@@H](O)CN2C)c1 | 87.1 ± 6%
64 | O=C(O)C1CCCN(CCC=C(c2ccccc2)c2ccccc2)C1 (stereo unspecified) | 90.3 ± 2.8%
65 | O=C(O)COCCN1CCN(C(c2ccccc2)c2ccc(Cl)cc2)CC1 (stereo unspecified) [Cetirizine dihydrochloride] | 85.4 ± 2%
66 | NC1CCN(c2cccc(Cl)n2)CC1 | 84.88 ± 0.2%

Row | SMILES | uninfected host cell viability
67 | CC(NC(=O)c1ccccc1/N=C/c1c(O)ccc2ccccc12)c1ccccc1 (stereo unspecified) [Sirtinol] | 89.09 ± 0.58%
68 | CC(C)NCC(O)COc1ccc(CCOCC2CC2)cc1 (stereo unspecified) [Betaxolol hydrochloride] | 85.7 ± 9.1%
69 | COc1cc2ncn(-c3cc(OCc4ccccc4C(F)(F)F)c(C(N)=O)s3)c2cc1OC | 83.8 ± 1.1%
70 | OC[C@H]1O[C@@H](n2cnc3c(NC4CCCC4)ncnc32)[C@H](O)[C@@H]1O [N6-Cyclopentyladenosine] | 98.17 ± 0.2%
71 | CC1(C)CCC(C)(C)c2cc(C3(c4ccc(C(=O)O)cc4)OCCO3)ccc21 | 93.1 ± 2.3%
72 | N#C/C(=C\c1ccc(O)c(O)c1)C(=O)OCCc1cccs1 | 77.5 ± 0.84%
73 | C1COC(NC(C2CC2)C2CC2)=N1 [Rilmenidine hemifumarate] | 89.2 ± 3%
74 | N=C(N)c1ccc(N2CCN(C3CCN(CC(=O)O)CC3)CC2)cc1 | 89.7 ± 3.2%
75 | CCc1c2c(nc3ccc(O)cc13)-c1cc3c(c(=O)n1C2)COC(=O)[C@]3(O)CC | 77.3 ± 8.2%
76 | Cc1cc2nc3c(=O)[nH]c(=O)nc-3n(C)c2cc1C=O | 94 ± 2%
77 | Cc1nn(-c2ccccc2)c(C)c1C=NN1CCN(Cc2ccccc2)CC1 | 98.9 ± 2.2%
78 | CSc1cc2c(cc1C(F)(F)F)N(C(=O)Nc1cccnc1)CC2 | 82.837 ± 0.016%
79 | O=C(O)C(=O)O.[NH-][C@@H]1CCCC[C@H]1[NH-].[Pt+2] [Oxaliplatin] | 86.7 ± 0.87%
80 | N[C@@H](CSC(c1ccccc1)(c1ccccc1)c1ccccc1)C(=O)O [S-Trityl-L-cysteine] | 91.7 ± 1.7%
81 | c1cnc(N2CCN(Cc3ccc4c(c3)OCO4)CC2)nc1 [Piribedil] | 96.65 ± 0.57%
82 | C[C@](N)(Cc1ccc(O)c(O)c1)C(=O)O [L-(-)- α-Methyldopa] | 79.3 ± 1.2%
83 | COC(=O)/C=C/c1cccc(N(Cc2ccc(-c3ccc(N(C)C)cc3)cc2)C(=O)C2CCCCC2)c1 [Fexaramine] | 96 ± 2.3%
84 | CC(C)C[C@@H](C(=O)N[C@H](C(=O)OC1CCCC1)c1ccccc1)[C@H](O)C(=O)NO | 97.9 ± 3.7%
85 | CN1CCC[C@@H]1Cc1c[nH]c2ccc(CCS(=O)(=O)c3ccccc3)cc12 [Eletriptan hydrobromide] | 85.29 ± 0.68%
86 | CN(C)CCC=C1c2ccccc2COc2ccccc21 [Doxepin hydrochloride] | 83.4 ± 3.1%
